Experimental data taken from PubChem BioAssay (NCATS).
Inconclusive results, whose numbers are uncertain, are shown with a selection of clear calls. For part of these data: A potency beside an inconclusive call is a rough fit, not a confirmed value. Activity calls are given as the source filed them. Unless noted, calls come from the whole dose curve; as a rule, active = well fitted curve in the direction sought with a large enough effect; inconclusive = small, poorly fitted or top-dose-only effect, or another doubt; inactive = no such curve, though single readings can be large; an effect the other way counts as inactive or inconclusive.

Key:
[1] = test system: Zika virus NS2B-NS3 protease (linked construct); assay: Primary screen NINDS Rhodamine qHTS for Zika virus inhibitors (AID 1347160); settings: activity change, negative = inhibition: at 57.1 µM (top of the series) unless noted; note: nearly all actives have a fitted effect of over 55% in size; for activity change, negative = inhibition: % is set by controls: 0 for no effect and ±100 for the full control effect
Outline: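 In 10 mM Tris-HCl pH 8.0 containing 0.01% Tween 20, linked NS2B-NS3 protease (25 nM final) is exposed to test compounds for 15 min. Cleavage of 1.5 microM Rhodamine110 substrate is tracked by fluorescence over 15 min.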

[2] = biological target: Cytochrome P450 2D6 (Homo sapiens) (UniProt P10635); assay: Cytochrome P450 family 2 subfamily D member 6 (CYP2D6) small molecule antagonists: luciferase biochemical (cell-free) qHTS assay (AID 1645840; active = well fitted curve in the direction sought with a large enough effect in the repeat runs; inconclusive = weak or mixed curves; inactive = no such curve, though single readings can be large; an effect the other way counts as inactive or inconclusive; note: nearly all actives have a fitted effect of over 55% in size)
Outline: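 P450-Glo luminescent screen: recombinant CYP2D6 enzyme–proluciferin substrate mix preincubated with compound 10 min at room temperature, then NADPH regeneration added for 1 h at room temperature. Detection reagent added for 20 min; luciferin light read as relative luminescence units.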

[3] = biological target: Cytochrome P450 2C9 (Homo sapiens) (UniProt P11712); assay: Cytochrome P450 family 2 subfamily C member 9 (CYP2C9) small molecule antagonists: luciferase biochemical (cell-free) qHTS assay (AID 1645842; active = well fitted curve in the direction sought with a large enough effect in the repeat runs; inconclusive = weak or mixed curves; inactive = no such curve, though single readings can be large; an effect the other way counts as inactive or inconclusive; note: nearly all actives have a fitted effect of over 55% in size)
Outline: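 Luminescence, after 20 min with luciferin detection reagent, reflected CYP2C9 turnover during a 1 h NADPH-driven reaction at 37C. Enzyme-substrate mix contained 0.4% bovine serum albumin and was preincubated with compound 10 min at room temperature.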

[4] = Primary qHTS for inhibitors of nuclear receptor binding SET domain protein 2 (NSD2) in an isogenic RCH-ACV NSD2 p.E1099K mutant (9B) (AID 1645876); note: nearly all actives have a fitted effect of over 70% in size
[5] = Primary redox qHTS assay for identification of artifact compounds. (AID 1845223); settings: Amplex Red/HRP redox cycling with DTT, fluorescence; redox activity (% of DA3003): at 53.8 µM (top of the series);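 for redox activity (% of DA3003): 0% = DMSO and 100% = reference compound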
Outline: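 Amplex Red (25 uM) and HRP (250 mU/mL) in HBSS, with compounds for 15 min, then 250 uM DTT for 30 min, room temperature, dark. Fluorescence 525/598 nm read; normalized to DMSO and 10 uM DA3003; Hill fit.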

HEK293 = assay: Cytotoxic Profiling of Annotated Libraries Using Quantitative High-Throughput Screening (AID 1296008); settings: Five cell lines viability, CellTiter-Glo ATP luminescence, 48-72 h; max response: active compounds read low; note: nearly all actives have a fitted effect of over 60% in size
Outline: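 Compounds were pin-transferred onto cells and incubated 48 or 72 hr at 37 degree Celsius, 95% humidity. CellTiter-Glo was added, plates sat 10 min at room temperature, then ATP-coupled luminescence was imaged as the viability read-out.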

CASKI = assay: Primary qHTS to identify gynecologic anti-cancer compounds using libraries of approved drugs and bioactive compounds (AID 1345084); settings: Gynecologic cancer cell panel viability, ATPlite luminescence, 48 h; series mostly up to 57.5 µM; note: nearly all actives have a fitted effect of over 55% in size; for activity change, negative = cytotoxicity: % is set by controls: 0 for no effect and ±100 for the full control effect
Outline: (§1)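 48 h compound exposure at 37 C, 5% CO2; five-point qHTS. ATPlite luminescence readout of cell ATP.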

[6] = Primary qHTS for inhibitors of nuclear receptor binding SET domain protein 2 (NSD2) in an RCH-ACV wild type WT cells (2C) (AID 1645877); settings: activity change, negative = cell killing: at 44.9 µM (top of the series) unless noted; note: nearly all actives have a fitted effect of over 70% in size
CAOV3 = assay: Primary qHTS to identify gynecologic anti-cancer compounds using libraries of approved drugs and bioactive compounds (AID 1345084); settings: Gynecologic cancer cell panel viability, ATPlite luminescence, 48 h; activity change, negative = cytotoxicity: at 57.5 µM (top of the series); note: nearly all actives have a fitted effect of over 55% in size; for activity change, negative = cytotoxicity: % is set by controls: 0 for no effect and ±100 for the full control effect
Outline: as §1

[7] = Primary fluorescence-based thiol-reactive (MSTI) qHTS assay for identification of artifact compounds. (AID 1845221);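 note: thiol-reactive compounds lower the probe fluorescence signal; nearly all actives have a fitted effect of over 65% in size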
Outline: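 First, 4 uM MSTI in 2% DMSO/PBS pH 7.4 was dispensed; next, compounds were added; then plates sat 1 h at room temperature without light. Finally, emission at 598 nm was recorded.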

Es-2 = assay: Primary qHTS to identify gynecologic anti-cancer compounds using libraries of approved drugs and bioactive compounds (AID 1345084); settings: Gynecologic cancer cell panel viability, ATPlite luminescence, 48 h; series mostly up to 57.5 µM; note: nearly all actives have a fitted effect of over 55% in size; for activity change, negative = cytotoxicity: % is set by controls: 0 for no effect and ±100 for the full control effect
Outline: as §1

SKOV3 = assay: as above; settings: Gynecologic cancer cell panel viability, ATPlite luminescence, 48 h; series mostly up to 57.5 µM
Outline: as §1

[8] = P-glycoprotein substrates identified in KB-8-5-11 adenocarcinoma cell line, qHTS therapeutic library screen (AID 1346987); note: nearly all actives have a fitted effect of over 65% in size
Outline: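 KB-8-5-11: colchicine-selected sub-line of KB-3-1 over-expressing P-gp; assay medium lacked colchicine. 72 h drug exposure at 37 degree C, CellTiter-Glo.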

[9] = test system: Zika virus NS2B-NS3 protease (unlinked complex); assay: Primary screen GU Rhodamine qHTS for Zika virus inhibitors: Unlinked NS2B-NS3 protease assay (AID 1347159); note: nearly all actives have a fitted effect of over 60% in size
Outline: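 Percent inhibition derives from the 15-min fluorescence change (ex 480, em 540 nm), normalized to no-enzyme and no-inhibitor wells. Reactions contained 25 nM NS2B-NS3 complex and 1.5 microM substrate in 10 mM Tris-HCl pH 8.0.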

HeLa = assay: Primary qHTS to identify gynecologic anti-cancer compounds using libraries of approved drugs and bioactive compounds (AID 1345084); settings: Gynecologic cancer cell panel viability, ATPlite luminescence, 48 h; activity change, negative = cytotoxicity: at 57.5 µM (top of the series); note: nearly all actives have a fitted effect of over 55% in size
Outline: as §1

JEG-3 = assay: as above; settings: Gynecologic cancer cell panel viability, ATPlite luminescence, 48 h; series mostly up to 57.5 µM
Outline: as §1

OV90 = assay: as above; settings: Gynecologic cancer cell panel viability, ATPlite luminescence, 48 h; series mostly up to 57.5 µM
Outline: as §1

[10] = Confirmatory screen NINDS Rhodamine qHTS for Zika virus inhibitors (AID 1347161); note: nearly all actives have a fitted effect of over 60% in size
Outline: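 Enzyme (25 nM, linked NS2B-NS3) was preincubated 15 min with compound in 10 mM Tris-HCl pH 8.0, 0.01% Tween 20. Rhodamine110 substrate (1.5 microM) was then added and fluorescence read at start and after 15 min.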

[11] = Tertiary RLuc qRT-PCR qHTS assay for Zika virus inhibitors (AID 1347169); note: nearly all actives have a fitted effect of over 55% in size
Outline: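 Vero cells (1,000 per well) plated overnight at 37 degrees C, treated with compound in DMSO, then infected with recombinant ZIKV-RLuc (Cambodian) at MOI 1-2 for 48-72 hrs. Live-cell Renilla luciferase substrate added; luminescence read after 1-1.5 hrs.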

[12] = qHTS to identify inhibitors of the type 1 interferon - major histocompatibility complex class I in skeletal muscle: primary screen against the NCATS Mechanism Interrogation Plate v5.0 (MIPE) Libary (AID 1347411); settings: iHSKM cells + IFN-b, HiBiT-tagged MHC-I luminescence, 24 h; activity change, negative = inhibition: at 45.8 µM (top of the series); note: nearly all actives have a fitted effect of over 65% in size
Outline: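 Immortalized human C25cl48 myoblasts with HiBit knocked into endogenous HLA-B*08:01 were stimulated with 4.0 ng/ml IFN-beta and exposed to compounds (11-point 1:3 titration, top 46 uM final) for 24 hrs at 37 C; HiBiT lytic luminescence measured.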

Hek293T = assay: Primary qHTS to identify gynecologic anti-cancer compounds using libraries of approved drugs and bioactive compounds (AID 1345084); settings: Gynecologic cancer cell panel viability, ATPlite luminescence, 48 h, control line for the selectivity index; activity change, negative = cytotoxicity: at 57.5 µM (top of the series) unless noted; note: nearly all actives have a fitted effect of over 55% in size
Outline: as §1

Tov-21-G = assay: as above; settings: Gynecologic cancer cell panel viability, ATPlite luminescence, 48 h; activity change, negative = cytotoxicity: at 57.5 µM (top of the series) unless noted
Outline: as §1
Potency is the fitted concentration of half-maximal effect; tags give direction and shape of the fitted curve.

Sequence of UniProt P11712 (P11712 whole entry, looked up): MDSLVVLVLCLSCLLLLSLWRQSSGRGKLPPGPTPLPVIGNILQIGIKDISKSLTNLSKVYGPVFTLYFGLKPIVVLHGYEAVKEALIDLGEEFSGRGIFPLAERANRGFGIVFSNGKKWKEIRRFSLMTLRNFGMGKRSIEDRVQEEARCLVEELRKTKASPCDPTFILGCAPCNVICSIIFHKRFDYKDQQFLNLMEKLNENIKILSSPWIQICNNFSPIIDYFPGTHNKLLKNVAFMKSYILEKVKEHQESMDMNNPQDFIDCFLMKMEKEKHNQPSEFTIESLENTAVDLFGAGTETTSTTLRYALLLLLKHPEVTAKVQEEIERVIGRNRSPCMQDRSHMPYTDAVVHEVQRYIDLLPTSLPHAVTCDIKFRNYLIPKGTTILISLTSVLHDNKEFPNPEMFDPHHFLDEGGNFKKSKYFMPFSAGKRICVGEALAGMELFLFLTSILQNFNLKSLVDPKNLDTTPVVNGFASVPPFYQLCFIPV
Sequence of UniProt P10635 (P10635 whole entry, looked up): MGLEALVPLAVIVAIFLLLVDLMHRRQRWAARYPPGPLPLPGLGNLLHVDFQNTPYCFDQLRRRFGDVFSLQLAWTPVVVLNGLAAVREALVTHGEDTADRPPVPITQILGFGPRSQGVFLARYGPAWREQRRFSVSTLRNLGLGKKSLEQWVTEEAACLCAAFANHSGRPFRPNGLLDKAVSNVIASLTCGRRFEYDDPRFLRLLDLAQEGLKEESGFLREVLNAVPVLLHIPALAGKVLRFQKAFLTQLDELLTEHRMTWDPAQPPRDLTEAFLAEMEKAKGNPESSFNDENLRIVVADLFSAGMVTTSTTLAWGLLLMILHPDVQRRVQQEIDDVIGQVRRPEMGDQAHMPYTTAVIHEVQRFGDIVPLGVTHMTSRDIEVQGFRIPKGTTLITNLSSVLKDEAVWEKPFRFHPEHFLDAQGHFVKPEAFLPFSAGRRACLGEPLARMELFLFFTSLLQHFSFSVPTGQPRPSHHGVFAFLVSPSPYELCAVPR

CC(C)(CO)c1cc2cc(NC(=O)C3(c4ccc5c(c4)OC(F)(F)O5)CC3)c(F)cc2n1CC(O)CO (stereo not given)
inactive: Potency [1] | Potency [5] | Potency (CASKI)
inconclusive: Potency [2] 16.9 µM [inhibitor, partial curve] | Potency [3] 23.9 µM [inhibitor, single point] | Potency [4] 23 µM [inhibitor, partial curve, poor fit] | Potency (HEK293) 29.1 µM [inhibitor, single point]

C=C1CCC2C(C)(COC3OC(COC(=O)CC(=O)O)C(O)C(O)C3O)CCCC2(C)C1CCC1=CCOC1=O (stereo not given)
inactive: Potency [6] | outcome (HEK293) | Potency (CAOV3)
inconclusive: Potency [5] 13 µM [activator, partial curve, poor fit]

Cc1cc2c(N3CCCC3)nc(N3CCCC3)nc2n1C
inconclusive: Potency [4] 29 µM [inhibitor, single point] | Potency [6] 20.5 µM [inhibitor, single point] | Potency [7] 3.77 µM [inhibitor, partial curve, poor fit] | Potency (HEK293) 18.4 µM [inhibitor, single point]
inactive: Potency (CASKI)

CCC(C)C(=O)O[C@H]1[C@@H](OC(=O)c2ccoc2)C[C@](C)(O)[C@]23OC(C)(C)[C@H](C[C@H](OC(=O)c4ccoc4)[C@]12COC(C)=O)[C@H]3OC(C)=O (stereo not given in full)
inactive: Potency (CASKI) | Potency (Es-2) | Potency (SKOV3)
inconclusive: Potency (HEK293) 9.68 µM [inhibitor, single point]

C/C=C(/C)C(=O)O[C@@H]1C[C@@H](OC(=O)/C(C)=C\C)[C@@]2(C)C3C(=O)C=C(C)C2C3C1(C)C
inactive: Potency [8] | max response (HEK293) -8.78% | Potency (CASKI)
inconclusive: Potency [9] 25.1 µM [inhibitor, partial curve]

CCc1nn(CCO)c(CC)c1Oc1cc(C#N)cc(C#N)c1
inactive: Potency [4] | max response (HEK293) 2.02% | Potency (CASKI)
inconclusive: Potency [3] 26.8 µM [inhibitor, single point] | Potency [5] 37.7 µM [activator, single point] | Potency (SKOV3) 39.8 µM [rising, single point]

COc1cc2c(cc1O)C1(Cc3ccc4c(c3C1O)OCO4)[N+](C)([O-])CC2 (stereo not given)
inactive: Potency (CASKI) | Potency (HeLa) | Potency (SKOV3)
inconclusive: Potency [9] 35.5 µM [inhibitor, partial curve] | Potency [1] 12.6 µM [inhibitor, single point] | Potency [6] 20.1 µM [inhibitor, single point] | Potency [5] 14.7 µM [activator, partial curve] | Potency (HEK293) 14.3 µM [inhibitor, single point]

O=C(O)/C=C/c1ccc(O[C@@H]2O[C@H](CO)[C@@H](O)[C@H](O)[C@H]2O)cc1
inactive: Potency [1] | Potency [4] | max response (HEK293) -0.219% | Potency (CASKI)
inconclusive: Potency (SKOV3) 5.01 µM [rising, single point]

CNCCC(c1cccs1)c1ccc(O)c2ccccc12 (stereo not given)
inactive: Potency [1] | Potency (CASKI)
inconclusive: Potency [8] 23.1 µM [inhibitor, single point] | Potency [4] 16.3 µM [inhibitor, single point] | Potency [6] 18.3 µM [inhibitor, single point] | Potency [7] 23.8 µM [inhibitor, partial curve, poor fit] | Potency [5] 0.947 µM [activator, full curve] | Potency (HEK293) 29.1 µM [inhibitor, single point] | Potency (JEG-3) 12.6 µM [cytotoxic, partial curve] | Potency (OV90) 35.5 µM [cytotoxic, single point] | Potency (SKOV3) 25.1 µM [cytotoxic, single point]

CC(C)C[C@H](CO)Nc1nc(S[C@@H](C)c2ccccc2)nc2nc(N)sc12
inactive: Potency (CASKI)
inconclusive: Potency [1] 14.1 µM [inhibitor, partial curve] | Potency [10] 62.2 µM [inhibitor, single point] | Potency [11] 23.4 µM [inhibitor, partial curve, poor fit] | Potency [12] 16.5 µM [inhibitor, single point] | Potency [6] 26.3 µM [inhibitor, single point] | Potency (HEK293) 25.9 µM [inhibitor, single point] | Potency (JEG-3) 28.2 µM [rising, single point]

CCCSc1nc(N[C@@H]2C[C@H]2c2ccc(F)c(F)c2)c2nnn([C@@H]3C[C@H](OCCO)[C@@H](O)[C@H]3O)c2n1
inactive: Potency (Hek293T)
active: Potency [6] 18.3 µM
inconclusive: Potency [8] 20.6 µM [inhibitor, single point] | Potency [9] 89.1 µM [inhibitor, single point] | Potency [1] 31.6 µM [inhibitor, single point] | Potency (HEK293) 29.1 µM [inhibitor, single point] | Potency (CASKI) 39.8 µM [cytotoxic, single point]

COc1cc(O)cc(/C=C/c2ccc(O[C@@H]3O[C@H](CO)[C@@H](O)[C@H](O)[C@H]3O)cc2)c1
inconclusive: Potency (JEG-3) 10 µM [cytotoxic, partial curve, poor fit] | Potency (SKOV3) 10 µM [cytotoxic, single point] | Potency (Tov-21-G) 17.8 µM [cytotoxic, single point]
inactive: max response (HEK293) -4.02% | Potency (CASKI) | Potency (OV90)
